# Assay results from the supplement of paper PMC11417369.
# ± gives the standard deviation of the averaged measurements. The list shows a part of the results.
# System: PfAP2-I AP2 domain 3 (GST-tagged)
# Experiment: gcPBM binding intensity (ln(normalized median fluorescence intensity)); higher = stronger DNA binding
# Outline: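 Probes on an Agilent 4 × 180k array were primer-extended, double-stranded and 36 bp long, taken from intergenic genomic regions, with negative controls added. GST-tagged P. falciparum DNA-binding domains from E. coli, about 25 μg on average, were applied to the array for 1 h in 1× PBS containing 1% milk, 0.2 mg/ml BSA, 0.5% salmon testes DNA and 0.03% Triton X-100. Binding intensity, obtained after Alexa488 anti-GST antibody detection and a 488 nm scan, is the highest Masliner-normalised natural-log median intensity across replicate spots of either probe orientation.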
row,Sequence,gcPBM binding intensity (ln)
1,CTATTTTGGATGTGTACACATATATATATTTATATT [CACACA_site5706],8.19 ± 0.35
2,CATTAACATTTTATTACACACAATAATTTATAAGTA [CACACA_site4083],7.91 ± 0.38
3,TTTTTTAAGTAATGAAATGATTTTCTTATAGAATAA [GTGCAC_negctrl_site395],7.25 ± 0.55
4,TGTGCAAGATTTTTCTGTACATATATATAAATATAT [XGTACX_site1796],8.845 ± 0.064
5,AAATATTCTTGTTTAATACACACTGTAGTATTATAT [CACACA_site433],7.86 ± 0.57
6,TTAAATAGATAAACTAAACACACAAAAAAAAAAAAA [CACACA_site8308],7.96 ± 0.67
7,GAATAAGATAGATATACACACCATTATAAATATAAA [CACACA_site5392],7.86 ± 0.16
8,TTTTGTACTTCATGCGTGCACAGAAATATATTATAT,10.5 ± 0.19
9,GCTAAAAGTATATGCACACACATATATATGCACATA [CACACA_site1635],10.3 ± 0.16
10,TAAATACTAATATGTACACACATATAGATATAGATT [CACACA_site7247],7.59 ± 0.22
11,TATGGTAAATACAACACACACACATATGTATTTATA [CACACA_site4666],7.91 ± 0.53
12,ATTTATTTATATAATACACACAAATATCTTAATTAA [CACACA_site3993],7.74 ± 0.38
13,TGGATATAAAACAACGTGCACTTGGTTGATTTTAAA [GTGCAC_site9900],10.51 ± 0.064
14,TTTTGTACAAAAATAATGCACACTATATCAAGTTTT [CACACA_site3595],11 ± 0.51
15,ATATAAAAAGGAAAAAGTACAAAAAAATGTTTGTGA [XGTACX_site8552],7.59 ± 0.57
16,AAGAAAATATATTCACATGAAGAATTAAAATAAAAC [TGCATGCA_negctrl_site119],7.78 ± 0.59
17,TTTTTTTTTTTTTTTTTTGGTGAGAGAAGAAAATTC [CACACA_negctrl_site950],8.14 ± 0.79
18,TAGGCCTTAAATCGTGTGCACTTTTTTTTTTTTTTT,9.775 ± 0.092
19,TATGTGCCAAAACACACACACATATATATATATATA [CACACA_site469],9.53 ± 0.54
20,CAAATTATTATTTAAGCACACATGTTTATTTTTTTT [CACACA_site2672],8.57 ± 0.14
21,AAATATATCAATATATATATATATATATATATATAT [XGTACX_negctrl_site544],9.06 ± 0.36
22,AAGCATACATCAAGCACACACACACCCACACCCACA [CACACA_site372],8.17 ± 0.59

row,Sequence,gcPBM binding intensity (ln)
1,TATATATATATAATTTGTACATATATATGTAACAAT [XGTACX_site8728],9.21 ± 0.49
2,TTCTGCTACCACTTGAATGTCAATGAAATTAAAAAA [CACACA_negctrl_site1164],8.17 ± 0.4
3,ATTTATAAAACAGGCACACATATAATAAATTTTATA [CACACA_site2600],7.95 ± 0.28
4,TAATAATTATTGCACGCACACAAAAACCTATAGATT [CACACA_site2931],11 ± 0.67
5,ACTATAAATATTTATAAACACACAAATATATATATT [CACACA_site7891],7.88 ± 0.47
6,ATTTTTTTTTTTACAGTGGAACCATATTTGCTCATT [CACACA_negctrl_site940],7.75 ± 0.67
7,ATACAATACACCGAACGTACATAAATCTATCTTTTA [XGTACX_site3668],8.05 ± 0.52
8,ATAATAAATGATAGCACACATATGTACATATATACA [CACACA_site864],8.21 ± 0.28
9,AATACCGGAAAGCAAACACACATTTTAAAACCATAA [CACACA_site3862],7.86 ± 0.39
10,GATTATCTATCGCTTGAATGAAATGAAATCATGCAA [GTGCAC_negctrl_site471],7.36 ± 0.62
11,AAATAAAATAAAAGCACACAAAATGTAAATAATTAT [CACACA_site2775],8.44 ± 0.36
12,GTATGTAATATTTTAGTGCAAAAAAAAAAAAAAAAA [GTGCAC_site9790],10.3 ± 0.4
13,AAAGAAATAAAAAAAAGTACACAATTATAAATATAT [XGTACX_site3428],8.05 ± 0.32
14,AAAATACTTTGAATTTGTACATATAGACATAATATT [XGTACX_site6181],7.49 ± 0.4
15,CGCGAACATACATACACACACATATTTATATAGGTA [CACACA_site6241],7.62 ± 0.54
16,AACATACCCATATACACACACACATAAATACAGATA [CACACA_site4744],8.07 ± 0.35
17,ATGTTAATCATTAAAAATAAAGTTTAATATAAGAAT [XGTACX_negctrl_site155],7.58 ± 0.66
18,CAAAACAAGCAAAAATGTACTTGATAAATATTTTCT [XGTACX_site1776],7.5 ± 0.46
19,ATTTAATTCTTTTGTTATAAAATTTTAGTATATATA [CACACA_negctrl_site1649],7.86 ± 0.57
20,CAAAAAAAATTATACACACACACACCGATATATATA [CACACA_site4719],8.2 ± 0.79
21,TTTATATATCAATACATTATGTATTAAGTCTTACAT [TGCATGCA_negctrl_site499],7.43 ± 0.64
22,GGTATATAAAAATATTGTACGAAAATATGCATATAA [XGTACX_site2501],7.92 ± 0.59
